B1: CPEB3 Ribozyme (parent)
chain: UAACAGGGGGCCACAGCAGAAGCGUUCACGUCGCAGCCCCUGUCAGAUUCUGGUGAAUCUGCGAAUUCUGCUGUAUAUCUC

The source gives no read counts; variants with many changes may rest on few reads.

The variants in this series derive from B1. The series can be described thus: self-cleavage, relative activity (ratio to wild type); higher = more cleavage; in vitro, sequencing. An outline of the steps:
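After error-prone PCR and barcoding, CPEB3 ribozyme mutant libraries were transcribed with T7 RNA polymerase at 37°C for 5 hours, then given 15 min with DNase I before an EDTA stop, and they cleaved during both steps. Reverse transcription with template switching preceded Illumina sequencing. Relative activity divides a variant's cleaved/total read fraction by the unmutated ribozyme's. At least 5 reads were required per variant, and three batches were averaged.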
For the variant UAGCAGGUUGCCACAGCUGAAGCGUCCACGUCGCAGCCCCUGUCAGAUUCUGGUGAAUCUGCGAAUCCUGCUGUAUAUCUC [A3G G8U G9U A18U U26C U67C], the self-cleavage stood at 0.21.
Next, UAGCAGGCGGCCACAGCAGAAGCGUACACGUCGCAGCCCCUGUCAGAUUCUGCUGAAUCUGCGAAUUCUGCUGAAUAUCCC [A3G G8C U26A G53C U74A U80C]: 0.57; UAGCAGGGUGCCACAGCAGAAGCGUUCACGACGCAGCCCCUGUCAGAAUCUGGUGAGUCUGCGAAUUCUGCUGUAUAUCUC [A3G G9U U31A U48A A57G]: 0.08.
Regarding UAGCAGGAGGCCACGGCAGAAGCGUUCACGUCGCAGCCCCUGUCAGAUUCUGGUGAAUCUGCGAAUUCUGCUGUAUAUCUC [A3G G8A A15G], the self-cleavage was 0.62.
The result for UAGCAGGGCGCCACAGCAGAAGCGUUCACGUCGCAGCCCCUGUCAGAUUCUGGCGAAUCAGCGUAUUCUGCUGUAUAUCUC [A3G G9C U54C U60A A64U] reads 0.28; that for UAGCAGCGGGCCACAGCAGAAGCGUUCACGUCGCAGCCCCUGACAGAUUCUGGUGAAUCUGCGAAUUCCGCUGUAUAUCUC [A3G G7C U43A U69C], 0.07; that for UAGCAGUGGGCCACGGCAGAAGCGCUCACGUCGCAGCCCCUGUCAGAAUCUGGUGAAUCUGCUAAUUCUGCUGUAUAUCUU [A3G G7U A15G U25C U48A G63U C81U], 0.05.
With UAGCAGGAGGCCACAGCAGAAGCGCUCACGUCGCAGCCCCUGUCAGAAUCUGCUGAAUCAGCGAAUUCUGCUGUAUAUCUC [A3G G8A U25C U48A G53C U60A], the self-cleavage was determined as 0.28.
Consider UAGCAGGUGGCCACAGCAGAAGCGUUCACGUCGCAGCCCCCGUCAGAUUCUGGUGAAACUGCGAAUUCUGCUGUAUAUCAC [A3G G8U U41C U58A U80A], for which the self-cleavage turned out to be 0.07.
The result for UAGCAGGGUGCCACAGCAGAAGCGUUCACGUCGCAGCCCCUGUCAGAUCCUGGUGAAUCUGCGAAUUCUGCUGUAUAUCUC [A3G G9U U49C] reads 0.27; that for UAGCAGGGGACCACAGCAGAAGCGUUCACGUCGCGGCCCCUGUCAGAUUCUGGUGGAUCUGCGAAUUCUGCGGUAUAUCUC [A3G G10A A35G A56G U72G], 0.31; that for UAGCAGGGUGCCACAGCAGAAGCGUUCACGUCGCAGCCCCCGUCAGAUUCUGGUGAAUCUGCGAAAUCUGCUGUAUAUCUC [A3G G9U U41C U66A], 0.09.
As for UAGCAGCAGGCCACAGCAGAAGCGUUCACGUCGCAGCCCCUGUCAGAUUCUGGUGAAUCUGCGGAUUCUACUGUAUAUCUC [A3G G7C G8A A64G G70A], the self-cleavage was found to be 0.18.
Next, UAGCAGGAGACCACAGCAGAAGCGUUCACGUCGCAGCCCCUGUCAGAUUCUGGAGAAUCAGCGAAUCCUGCUGUAUAUCUC [A3G G8A G10A U54A U60A U67C]: 0.07; UAGCAGGGGACCUCAGAAGAAGCGUUCACGUCGCAGCCCCUGUCAGAUUCUGGUGUAUCUGCGAAUCCUGCUGUAUAUCUC [A3G G10A A13U C17A A56U U67C]: 0.06.
As to UAGCAGGGGACCACAGCAGGAGCGUUCACGUCGCAGCCCCUGUCAGAUACUGGUGAGUCUGCGAAUUCUGCUGUAUAUCUC [A3G G10A A20G U49A A57G], the self-cleavage came to 0.07.
UAGCAGGGCGCCGCAGCAGAAGCGUUCACGUCGCAGCCCCUGUCAGAUUCUGGUGAGUCUGCGAAUUCUGCUGUAUAUCCC [A3G G9C A13G A57G U80C]: the self-cleavage turned out to be 0.14.
The result for UAGCAGCGGGCCACAGCAGAAGCGUUCGCGUCGCAGCCCCAGUCAGAUUCUGGUGAAUCUGCGAAUUCUGCUGUAUAUCUC [A3G G7C A28G U41A] reads 0.09; that for UAGCAGGUGGCCACAGCAGAAGCGUUCACGUCGCAGCCCCUGUCAGAUUCUGAUGAGUCUGCGAAUUCUGCUGUAUAUCUC [A3G G8U G53A A57G], 0.31; that for UAGCAGGAGGCCACAGCAGAAGCGUUCACGUCGCAGCCCCUGCCAGAUUCUGGUGAAUCUGCGAAUUCUGCUGUAUAUCCC [A3G G8A U43C U80C], 0.46.
Turning to UAGCAGGUGGCCACAGCAGAAGCGUUCACGUCGCAGCCCCUGUCAGAUUCUGGUGAAUCUGCGAAUACGGCAGUAUAUCUC [A3G G8U U67A U69G U72A], the self-cleavage came out at 0.06.
Next, UAGCAGGGUGCCACAGCGGAAGCGUUCACAUCGCAGCCCCUGUCAGAUUCUGGUGAAUCUGCGAAUUCUGCUGUAUAUCUC [A3G G9U A18G G30A]: 0.49; UAGCAGGGAGCCACAGCAGAAGCGUUCACGUCGCAGCCCCUGUCAGAUUCUGGUGAAUCUGCGAAUUCUGCUGUAAAUCUC [A3G G9A U76A]: 0.43; UAGCAGGAGGCCACAGCAGAAGCGUUCACGUCGCAGCCCCUGUCAGAUUCUGGCGAAUCUGCGAAUUCUGCUGUAUAUCUC [A3G G8A U54C]: 0.42.
The result for UAGCAGGAGGCCACGGCAGAAGCGCUCACGUCGCAGGCCCUGUCAGAUUCUGGUGAAUCUGCGAAUUCUGCUGAAUAUCUC [A3G G8A A15G U25C C37G U74A] reads 0.06.
Consider UAGCAGUGGGCCACAGCAGAAGCGGUCUCGUCGCAGCCCCUGUCAGAUUCUGGUGAAUCCGUGAAUUCUGCUGUAUAUCUC [A3G G7U U25G A28U U60C C62U], for which the self-cleavage was 0.07.
Take UAGCAGGGAGCCACAGCAGAGGCGUUCACGUUGCAGCCCCUGUCAGAUUCUGGUGAAUCUGCGAAUUCUGCAGUAUAUCUC [A3G G9A A21G C32U U72A]: the self-cleavage was found to be 0.05.
On to UAGCAGGAGGCCACAGCGGAAGCGUUCACGUCGCAGCCCCUGUCAGAUUCUGGUGAAUCUGCGGAUUCUGCUGUGUAUCGC [A3G G8A A18G A64G A75G U80G], for which the self-cleavage worked out at 0.07.
Take UAGCAGGCGGCCACAGCAGAAGCGUACACGUCGCAGCCCCUGUCAGAUUCUGUUAAAUCUGCGAAUUCUGCUGUAUAUCCC [A3G G8C U26A G53U G55A U80C]: the self-cleavage turned out to be 0.64.
For UAGCAGGGAGCCACAGCAGAAGCGUCCACGUCGCAGCCCCUGUCGGAUUCUGGUGAAUCUGCGAAUUCUGCUGUAUAUCUC [A3G G9A U26C A45G], the self-cleavage worked out at 0.35.
Take UAGCAGGGUGCCUCUGCAGGAGCGUUCACGUCGCAGCCCCUGUCAGAUUCUGGUGAAUCUGCGAAUUCUGCUGUAUAUCUC [A3G G9U A13U A15U A20G]: the self-cleavage came out at 0.16.
As for UAGCAGGAGGCCACAGCAGAAGCGUUCACGUCGCAGCCCCUGUCAGAUUCUGGUGUAUCUGCGAAUUCUGCUGUAUAUCCC [A3G G8A A56U U80C], the self-cleavage worked out at 0.09.
For UAGCAGGGGACCACAGCAGAGGCGUUUUCGUCGCAGCCCCUGUCAGAUUCUGGUGAAUCUGCGAAUUCAGCUGUAUAUCUC [A3G G10A A21G C27U A28U U69A], the self-cleavage came out at 0.06.
Regarding UAGCAGCGGGCCACAGCAGAAGCGUUCACGUCGCAGCCCCUGUCAGAUUCUGGUGAAUCUGCGAAUUCUGCUGCAUAUCUC [A3G G7C U74C], the self-cleavage amounted to 0.75.

(Values after the RNAGym collection of RNA variant scans (doi:10.1093/nar/gkz1192).)
